Patent US20150209426A1, “TREATMENT OF CANCER” (Boehringer Ingelheim International GmbH, priority 2014, published 2015)

How the values were obtained:
[1] = tested on: pAKT in Ewing's sarcoma models; conditions: models of Ewing's sarcoma, with rapamycin; cited from earlier work
[2] = tested on: AKT and S6 phosphorylation in MCF7aro cells; assay: Western blot assessment of AKT and S6 phosphorylation status in MCF7aro cell lysates; assay type: cell-based, human; conditions: 24 hours, 100 nM IGF Ab 60833, 0.32 nM everolimus, versus vehicle (DMSO) control
Experimental: 1.8×10^6 MCF7aro cells were plated in 10 cm dishes in starvation medium (MEM alpha without phenol red, supplemented with 10% charcoal stripped FBS, 2 mM GlutaMAX and […]). After overnight incubation, medium was changed to assay medium (MEM alpha without phenol red, supplemented with 10% charcoal stripped FBS, 2 mM GlutaMAX, 1 mM sodium pyruvate and 1 nM androstenedione) and the cells were treated with 100 nM of IGF Ab 60833 or 0.32 nM of everolimus or a combination of antibody and mTORC1 inhibitor. As a control, cells were treated with vehicle (DMSO) only. At 24 h post treatment, the cells were lysed on ice with MSD Tris Lysis Buffer containing 20 mM Tris pH 7.5, 150 mM NaCl, 1 mM EDTA, 1 mM EGTA, 1% Triton X-100, completed with protease and phosphatase inhibitor cocktails. Prior to use, freshly prepared 2 mM PMSF was added to the buffer.
(§1) Total protein was isolated and protein concentration was quantified by Bradford protein assay according to the manufacturer's instructions. […]
The effect of IGF Ab 60833 and everolimus, as single agents and in combination, on the phosphorylation of AKT at serine 473 (pAKT S473) and threonine 308 (pAKT T308), and of S6 (pS6) at serine 235/236 was monitored by Western blot analysis of MCF7aro cell lysates prepared 24 hours post treatment.

[3] = tested on: cleaved PARP in MCF7aro cells; assay: Cleaved PARP (apoptosis) in MCF7aro cell lysates by Western blot and MSD Apoptosis Panel; assay type: cell-based, human; conditions: 72 h, 1 μM of each agent, versus vehicle-treated control
Experimental: 1.5×10^6 MCF7aro cells were plated in 10 cm dishes in starvation medium (MEM alpha without phenol red, supplemented with 10% charcoal stripped FBS, 2 mM GlutaMAX and 1 mM sodium pyruvate). After overnight incubation, medium was changed to assay medium (MEM alpha without phenol red, supplemented with 10% charcoal stripped FBS, 2 mM GlutaMAX, 1 mM sodium pyruvate and 1 nM androstenedione) and the cells were treated with vehicle (DMSO), or 1 μM of IGF Ab 60833, or 1 μM exemestane, or 1 μM everolimus, or a combination of exemestane and everolimus, or a combination of all three inhibitors. At 72 h post treatment, the cells were lysed on ice with MSD Tris Lysis Buffer containing 20 mM Tris pH 7.5, 150 mM NaCl, 1 mM EDTA, 1 mM EGTA, 1% Triton X-100, completed with protease and phosphatase inhibitor cocktails. Prior to use, freshly prepared 2 mM PMSF was added to the buffer.
as §1
Cells lysates were prepared according to the Meso Scale Discovery cell lysis protocol. 20 μg of clarified lysate was analyzed in duplicates with MSD Apoptosis Panel Whole Cell Lysate Kit, measuring cleaved PARP signals, according to the manufacturer's instructions. Plates were read on the SECTOR Imager 6000 plate reader.

B1: IGF Ab 60833: fully human monoclonal IgG1 antibody binding IGF-1 and IGF-2; heavy chain SEQ ID NO: 39, light chain SEQ ID NO: 40 (antibody, listed as Homo sapiens)
heavy: QVELVESGGGLVQPGGSLRLSCAASGFTFTSYWMSWVRQAPGKGLELVSSITSYGSFTYYADSVKGRFTISRDNSKNTLYLQMNSLRAEDTAVYYCARNMYTHFDSWGQGTLVTVSS[gap - human IgG1 constant region]
light: DIVLTQPPSVSGAPGQRVTISCSGSSSNIGSNSVSWYQQLPGTAPKLLIYDNSKRPSGVPDRFSGSKSGTSASLAITGLQSEDEADYYCQSRDTYGYYWVFGGGTKLTVLGQPKAAPSVTLFPPSSEELQANKATLVCLISDFYPGAVTVAWKGDSSPVKAGVETTTPSKQSNNKYAASSYLSLTPEQWKSHRSYSCQVTHEGSTVEKTVAPTECS
modifications: /mol_type=“protein” /organism=“Homo sapiens”
- effect on rapamycin-induced increase in pAKT [1]: inhibit the rapamycin induced increase in pAKT; also recorded: inhibit the rapamycin-induced increase in pAKT
- pAKT S473 and T308 levels by Western blot [2]: did not result in inhibition
- pS6 (S235/236) signal by Western blot [2]: did not result in inhibition
- levels of cleaved PARP (marker for apoptosis) [3]: comparable to or only marginally higher than the level in the vehicle-treated control

“Also recorded” adds a separate entry of the source.
